Experimental data as given in PubChem BioAssay (NCATS).
Inconclusive results, whose numbers are uncertain, are shown with a selection of clear calls. No potency is given beside an inconclusive call; the fits are too rough. Activity calls are given as the source filed them. The call rests on the fitted dose curve; in most records, active means well fitted cell-killing curve with a large enough effect; inconclusive means small, poorly fitted or top-dose-only effect; inactive means flat fitted curve, though single readings scatter.

Assay: Cellular viability qHTS for adrenocortical cancer (ACC) cell line NCI-H295R (AID 1963990); further: nearly all actives have a fitted effect of over 60% in size;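 on activity change, negative = viability loss: 0% = DMSO only wells and -100% = full killing with cytotoxic reference compound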
Conditions: CellTiter-Glo ATP luminescence, 48 h; activity change, negative = viability loss: at 46.1 µM (top of the series)
Summary of the method: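 Adrenocortical carcinoma cells, suspended at 300 000 cells/mL in serum-free DMEM plus ITS, rested overnight before pin transfer of compound. After two days' incubation, ATP-dependent luminescence was recorded and curve-fitted.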
Potency means the concentration at half of the fitted maximal effect; tags describe the fitted curve by direction and shape.

| SMILES | Potency | activity change, negative = viability loss |
| --- | --- | --- |
| CC[C@@H](Oc1cccc(CN(CCCOc2ccc(OC)cc2)c2nc3ccccc3o2)c1)C(=O)O | inconclusive [cytotoxic, partial curve, poor fit] |  |
| O=c1[nH]sc2cc(Cl)ccc12 | active: 3.26 µM |  |
| CC(C)Cc1ccc(CC(=O)O)cc1 | inconclusive [cytotoxic, single point] |  |
| O=C(OCC(O)CO)c1ccccc1Nc1ccnc2c(C(F)(F)F)cccc12 (stereo not given) | inconclusive [cytotoxic, single point] |  |
| COc1ccc(S(=O)(=O)NCc2ccc(C(=O)NCCc3ccc(Cl)cn3)cc2)cc1 |  | inactive: -20.4% |
| Cc1cc(O)c2ccccc2c1O | active: 20.6 µM |  |
| Nc1ccc([N+](=O)[O-])cc1O | inconclusive [cytotoxic, single point] |  |
| CCCCC(=O)O[C@]1(C(=O)CO)CC[C@H]2[C@@H]3CCC4=CC(=O)CC[C@]4(C)[C@H]3[C@@H](O)C[C@@]21C | inconclusive [cytotoxic, single point] |  |
| COc1ccc(-n2c(SCCCN3C(=O)c4cccc5cccc(c45)C3=O)nnc2-c2ccncc2)cc1 |  | inactive: -16.5% |
| Cc1ccc(Nc2ncc3c(n2)N(C)C(=O)N(c2cc(NC(=O)c4cccc(C(F)(F)F)c4)ccc2C)C3)cn1 |  | inactive: 10.6% |
| OC[C@@H](O)[C@H](O)[C@H](O)[C@@H](O)CO | inactive |  |
| COc1ccc(C(=O)c2ccccc2)c(O)c1 | inconclusive [cytotoxic, single point] |  |
| Clc1ccc2c(c1)Nc1ccccc1S2 | inconclusive [cytotoxic, single point] |  |
| CCCC(=O)c1cc(O)c(O)cc1O | inconclusive [cytotoxic, full curve, poor fit] |  |
| CN(CCOc1ccc(C[C@H](Nc2ccccc2C(=O)c2ccccc2)C(=O)O)cc1)c1ccccn1 | inconclusive [cytotoxic, single point] |  |
| Cc1c2oc3c(C)ccc(C(=O)N[C@@H]4C(=O)N[C@H](C(C)C)C(=O)N5CCC[C@H]5C(=O)N(C)CC(=O)N(C)[C@@H](C(C)C)C(=O)O[C@@H]4C)c3nc-2c(C(=O)N[C@@H]2C(=O)N[C@H](C(C)C)C(=O)N3CCC[C@H]3C(=O)N(C)CC(=O)N(C)[C@@H](C(C)C)C(=O)O[C@@H]2C)c(N)c1=O | active: 0.0517 µM |  |
| COc1cc(C(=O)NC(N)=Nc2ccc(C)c(NC(=O)c3ccc(-c4ccccc4)cc3)c2)cc(OC)c1OC | active: 10 µM |  |
| COc1cc2c(NC3CCN(C4CCCCC4)CC3)nc(N3CCCN(C(C)C)CC3)nc2cc1OCCCN1CCCCC1 | inconclusive [cytotoxic, single point] |  |
| CN(C)CCCN1c2ccccc2Sc2ccccc21 | inconclusive [cytotoxic, partial curve, poor fit] |  |
| CC(=O)Nc1ccc(/C=N/NC(N)=S)cc1 | inconclusive [cytotoxic, partial curve] |  |

| SMILES | Potency | activity change, negative = viability loss |
| --- | --- | --- |
| NC(=O)n1c(O)c(C(=O)c2cccs2)c2cc(Cl)ccc21 | active: 9.2 µM |  |
| Clc1ccc2c(c1)CCc1cccnc1C2=C1CCNCC1 | inconclusive [cytotoxic, single point] |  |
| C[C@@H](CN(C)C)CN1c2ccccc2Sc2ccccc21 | inconclusive [cytotoxic, single point] |  |
| Nc1nccn2c(C3CCC(C(=O)O)CC3)nc(-c3cc4cccc(Cl)c4[nH]3)c12 (stereo not given) | active: 12.6 µM |  |
| C[C@@H](O[C@H]1OCCN(Cc2n[nH]c(=O)[nH]2)[C@H]1c1ccc(F)cc1)c1cc(C(F)(F)F)cc(C(F)(F)F)c1 | inconclusive [cytotoxic, single point] |  |
| Cc1nc2n(c(=O)c1CCN1CCC(c3noc4cc(F)ccc34)CC1)CCC[C@H]2O |  | inactive: -26.3% [at 20 µM] |
| Cc1cccc(C)c1NC(=O)C(C)N (stereo not given) | inconclusive [cytotoxic, single point] |  |
| CCCc1cc(C)[nH]c(=O)c1CNC(=O)c1cc(-c2ccc(N3CCN(C(C)C)CC3)nc2)cc2c1cnn2C(C)C | inconclusive [cytotoxic, full curve, poor fit] |  |
| CC1(C)SCCN(S(=O)(=O)c2ccc(OCC#CCO)cc2)[C@H]1C(=O)NO | inconclusive [cytotoxic, single point] |  |
| CNCCC(Oc1ccc(C(F)(F)F)cc1)c1ccccc1 (stereo not given) | inconclusive [cytotoxic, single point] |  |
| C/C(=N\NC(=S)N1CCC1)c1ccccn1 | inconclusive [cytotoxic, full curve, poor fit] |  |
| COc1cc(N2CCN(C)CC2)ccc1Nc1ncc2c(n1)N(C)c1ccccc1C(=O)N2 | inconclusive [cytotoxic, single point] |  |
| Cc1noc2c1-c1ccccc1C(c1ccc(Cl)cc1)=N[C@H]2CC(N)=O | inconclusive [cytotoxic, partial curve] |  |
| O=C(C(c1ccccc1)c1ccccc1)N1CCN(CC(O)COc2cccc3ncccc23)CC1 (stereo not given) | inconclusive [cytotoxic, single point] |  |
| CCOC(=O)/C=C(C)/C=C/C=C(C)/C=C/c1c(C)cc(OC)c(C)c1C | inconclusive [cytotoxic, single point] |  |
| COc1cc2nc(-c3cc(F)ccc3O)nc(N[C@@H]3CNC[C@H]3C(C)(C)O)c2cc1OC | active: 6.31 µM |  |
| Nc1nc2c(c(=O)[nH]1)N1CN(c3ccc(C(=O)N[C@@H](CCC(=O)O)C(=O)O)cc3)CC1CN2 (stereo not given in full) | inconclusive [cytotoxic, full curve, poor fit] |  |
| Cc1nc(N)nc(N)c1-c1ccc(Cl)c(Cl)c1 | active: 0.13 µM |  |
| CN(C)CCOC(c1ccc(Cl)cc1)c1ccccn1 (stereo not given) | inconclusive [cytotoxic, single point] |  |
| CCNC(=O)Nc1ccc(Oc2ncnc(N)c2/C=N/OC)cc1Cl | inconclusive [cytotoxic, single point] |  |
